Screen size: about 45,000 compounds; about 65 (0.1%) were called active. The call rests on the fitted dose curve; in most records, active means well fitted activation curve with a large enough effect; inconclusive means small, poorly fitted or top-dose-only effect; inactive means no such curve, though single readings can be large or run the other way. The list shows a part of the results.
target: Galactocerebrosidase (Homo sapiens) (UniProt P54803); assay: A Novel Cell-Based Assay to Identify Small Molecules for B -Galactocerebrosidase; conditions: 145M-Twi-hGALC-G270D cells, HMU-beta-Gal fluorescence, 48 h; series mostly up to 57.5 µM; activation: at the top concentration; further: 0% is about no effect; nearly all actives have a fitted effect of over 65% in size
UniProt P54803, sequence (P54803 whole entry, looked up): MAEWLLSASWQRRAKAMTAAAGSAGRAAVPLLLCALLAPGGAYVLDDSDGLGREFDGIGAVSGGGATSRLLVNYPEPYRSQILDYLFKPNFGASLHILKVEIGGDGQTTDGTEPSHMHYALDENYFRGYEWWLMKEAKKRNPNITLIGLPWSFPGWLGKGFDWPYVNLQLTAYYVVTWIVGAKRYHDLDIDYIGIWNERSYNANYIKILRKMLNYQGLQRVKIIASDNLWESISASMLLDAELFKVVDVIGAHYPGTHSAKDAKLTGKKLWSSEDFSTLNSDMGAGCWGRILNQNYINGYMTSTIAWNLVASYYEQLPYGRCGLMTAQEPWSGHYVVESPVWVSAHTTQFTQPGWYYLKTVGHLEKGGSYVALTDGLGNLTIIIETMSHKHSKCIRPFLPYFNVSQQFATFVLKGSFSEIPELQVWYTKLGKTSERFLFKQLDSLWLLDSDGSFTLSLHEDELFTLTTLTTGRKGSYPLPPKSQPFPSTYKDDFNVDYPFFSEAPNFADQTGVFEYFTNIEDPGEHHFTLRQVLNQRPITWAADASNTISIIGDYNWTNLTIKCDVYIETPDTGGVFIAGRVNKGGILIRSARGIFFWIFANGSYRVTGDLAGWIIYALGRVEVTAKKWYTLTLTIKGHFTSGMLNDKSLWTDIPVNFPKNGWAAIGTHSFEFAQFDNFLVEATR
Procedure, shortened: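 qHTS, 1536-well; 145M-Twi-hGALC-G270D cells (WT line also made) in DMEM/F12 + 10% FBS; compound incubation on live cells; HMU-β-gal 0.1 mM final, pH 5.2, NaTC; carbonate stop; fluorescence increase = enhanced residual activity.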

activation, inactive:
O=C(Nc1ccccc1F)C(Cc1ccccc1)n1cccc1 (configuration not stated) -9.96%
COc1cc(OC)cc(-c2nc3nc(C)c(CCC(=O)Nc4ccc(Cl)cc4)c(C)n3n2)c1 2.08%
COc1cccc(C(=O)Nc2ccc3oc(-c4ccc5ccccc5c4)nc3c2)c1 -1.92%
Cc1cc(C)c(Nc2nn3c(=O)c4cc5c(cc4nc3s2)OCO5)c(C)c1 -8.06%
CNC(=O)c1cc2c(n(-c3ccc(C)cc3)c1=O)CC(C)(C)CC2=O -1.87%
O=C(Nc1ccc2nc(SCC(=O)N3CCOCC3)sc2c1)c1ccc(F)cc1 -0.312%
CCOc1ccc(S(=O)(=O)N(CC(=O)NCCSCc2ccc(C)cc2)c2ccccc2)cc1 -2.9%
CCn1ccc2cc(S(=O)(=O)N3CCCN(C(=O)Nc4ccccc4C(F)(F)F)CC3)ccc21 -20.8%
COc1cccc(CNC(=O)CSc2nc(=O)[nH]c3c2CCCC3)c1 -12%
CCc1ccc(NC(=O)Cn2c(=O)c(-c3ccccc3NC(C)=O)nc3ccccc32)cc1 4.75%
OC[C@@H](O)[C@@H](O)[C@H](O)[C@H](O)CO -18%
Oc1c(C(c2ccc(Cl)cc2Cl)N2CCOCC2)sc2nc(-c3ccco3)nn12 (configuration not stated) -5.68%
CC(=O)N[C@@H](Cc1ccc(O)cc1)C(=O)O -14%
O=C(NCc1ccc(F)cc1)c1ccc(CS(=O)(=O)c2ccc(Cl)cc2)o1 -7.12%
Cc1ccc2c(=O)cc(C(=O)Nc3nnc(CC(C)C)s3)oc2c1C -19.5%
O=C(CC1N=C2c3ccccc3N=C(SCC(=O)Nc3cccc(Cl)c3)N2C1=O)NCc1cccs1 (configuration not stated) -15.4%
Cc1cccc(Cn2c(=O)n(CCC(=O)NCc3ccc4c(c3)OCO4)c(=O)c3sccc32)c1 -13.1%
COc1ccc(CCNC(=O)Cn2cc(S(=O)(=O)Cc3ccccc3F)c3ccccc32)cc1OC -4.55%
CC1CCN(S(=O)(=O)c2ccc(N3CCCCS3(=O)=O)cc2)CC1 -11.6%
COc1ccc2c(c1)Cc1sc(NC(=O)c3ccccc3Br)nc1-2 -23%
CCc1ccc(NC(=O)c2ccc3c(c2)N(Cc2ccc(C)cc2)CCS3)cc1 -15.7%
CCn1c(SCC(=O)Nc2ccc(C)cc2Br)nnc1-c1nonc1NC(C)=O -2.13%
Cc1ccc(C)n1-c1nnc(N2CCC(C(=O)Nc3ccccc3Br)CC2)s1 -0.283%
CCCN1CCc2nc(N3CCN(CC)CC3)ncc2C1 -3.13%
Cc1ccc(OCCn2c(CNc3cccc(C)c3)nc3ccccc32)cc1 -1.85%
CCc1ccccc1N(C)C(=O)C1CCCN(c2ncnc3onc(-c4ccc(F)cc4)c23)C1 (configuration not stated) -13.4%
CC(=O)c1ccc(C(=O)N(CCCN(C)C)c2nc3c(C)c(C)ccc3s2)cc1 7.26%

Source: PubChem BioAssay AID1159614 (National Center for Advancing Translational Sciences (NCATS), 2016)
